Experimental data as given in PubChem BioAssay AID493208 (National Center for Advancing Translational Sciences (NCATS), 2011).
In all, about 44,000 compounds went through this assay and about 340 (0.77%) were called active. About 5% were inconclusive and are not listed. The call rests on the fitted dose curve; in most records, active means well fitted inhibition curve with a large enough effect; inconclusive means small, poorly fitted or top-dose-only effect; inactive means flat fitted curve, though single readings scatter. The list shows a part of the results.

Test: Acumen qHTS Assay for Inhibitors of the mTORC1 Signaling Pathway in MEF (Tsc2-/-, p53-/-) Cells: Sytravon;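 further: plate controls were DMSO for no effect and rapamycin for full effect; nearly all actives have a fitted effect of over 50% in size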
Conditions: phospho-rpS6 immunofluorescence/PI, 24 h; series mostly up to 38.3 µM; activity change, negative = inhibition: at the top concentration
Procedure, shortened: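 Compounds act on Tsc2-/-, p53-/- fibroblasts carrying an empty vector for 24 h before fixation and dual staining for phospho-S6 and DNA (propidium iodide). Values are percentages of cells above a rapamycin-defined pS6/PI threshold.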

Row | Compound | activity change, negative = inhibition
1 | CCCSc1oc(-c2ccco2)nc1S(=O)(=O)c1ccc(Br)cc1 | inactive: -28.1%
2 | COCCn1ccc2c(OCC(=O)Nc3c(C)cc(C)cc3C)cccc2c1=O | inactive: -4.55%
3 | Cc1ccc(S(=O)(=O)n2nc(-c3ccc(Cl)cc3)nc2NCc2ccccc2)cc1 | inactive: -1.46%
4 | CC1CCc2c(sc3nnn(Cc4cccc(C(=O)OC(C)C)c4)c(=O)c23)C1 (stereo not given) | inactive: 1.81%
5 | CC(=O)N1CCc2c(sc3c2c(=O)n(-c2ccc(F)cc2)c(=O)n3Cc2ccc(C#N)cc2)C1 | inactive: -4.7%
6 | CCn1c(C(=O)NCc2ccccc2OC)cc2sccc21 | inactive: -1.76%
7 | CCOc1ccccc1CNC(=O)C1CCN(S(=O)(=O)c2c(C)noc2/C=C/c2ccccc2F)CC1 | inactive: 3.11%
8 | CC1=C(c2ccc(C(C)C)cc2)S(=O)(=O)N=C1N1CCC(C(=O)NCc2ccccc2)CC1 | inactive: 3.16%
9 | COc1ccc(-n2ccnc(NCc3cccs3)c2=O)cc1OC | inactive: -1.18%
10 | O=C(NCc1ccccc1Cl)c1ccc(NC(=O)N2CCCCc3ccccc32)cc1 | inactive: 1.13%
11 | Cc1ccc(S(=O)(=O)c2c(Nc3cccc(Cl)c3)sc(C(=O)c3ccc4c(c3)OCO4)c2N)cc1 | inactive: -7.6%
12 | CCOc1ccc(NC(=O)CSC2=Nc3ccccc3C3=NC(CC(=O)NCc4ccc5c(c4)OCO5)C(=O)N23)cc1 (stereo not given) | inactive: 0.196%
13 | O=C(OCc1cc(=O)n2c3c(sc2n1)CCCC3)c1cccc(NC(=O)c2ccccc2F)c1 | inactive: 12.4%
14 | Cc1ccc(C(=O)c2oc3ccccc3c2NC(=O)Cc2coc3c(C)c(C)ccc23)cc1 | inactive: 2.88%
15 | Cc1cccc(NC(=O)CN(C)S(=O)(=O)c2ccc3c(c2)c(=O)n(C)c(=O)n3C)c1 | inactive: -7.2%
16 | O=C(NCCS(=O)(=O)N1CCN(c2ccccc2)CC1)C1CC(=O)N(c2ccccc2)C1 (stereo not given) | inactive: 2.21%
17 | COc1ccccc1C(=O)Nc1ccc(-c2nc3ccccc3s2)c(C)c1 | inactive: 0.475%
18 | Cc1cc(Br)ccc1NC(=O)C1(S(=O)(=O)c2ccc(Cl)cc2)CC1 | inactive: -22.4%
19 | Cc1ccc(-c2cc(C(=O)N(Cc3ccccc3)Cc3ccco3)no2)cc1F | inactive: 1.44%
20 | CCOc1ccc(CCNc2nc3c(-c4ccc(C)cc4)nnn3c3ccccc23)cc1OCC | inactive: 7.15%
21 | Cc1ccc(-c2ccc(=O)n(CC(=O)Nc3ccc(F)c(Cl)c3)n2)cc1C | inactive: -0.544%
22 | COc1cccc(NC(=O)CSC2=Nc3ccccc3C3=NC(CCC(=O)NCc4ccco4)C(=O)N23)c1 (stereo not given) | inactive: -3.69%
23 | COc1ccc(-c2nc(CNS(=O)(=O)c3ccc(C)cc3)cs2)cc1 | inactive: -7.18%
24 | CCOc1ccccc1C(=O)Nc1ccc(S(=O)(=O)N2CCCCC2c2cccnc2)cc1 (stereo not given) | inactive: -19.4%

Row | Compound | activity change, negative = inhibition
25 | COc1ccccc1C(=O)Nc1nnc(S(=O)(=O)N2CCCCCC2)s1 | inactive: -27.6%
26 | COc1ccc(C(=O)N2CCc3cc(OC)c(OC)cc3C2COc2ccccc2OC)cc1 (stereo not given) | inactive: -19.2%
27 | COC(=O)c1c(C)sc(-c2c(-c3cccc(OC)c3)[nH]c3c2c(=O)[nH]c(=O)n3C)c1O | inactive: -6.62%
28 | CC(=O)Nc1ccc(S(=O)(=O)NC2(C(F)(F)F)NC(=O)N(c3ccc(Cl)cc3)C2=O)cc1 (stereo not given) | inactive: -0.694%
29 | COc1ccc(C)c2sc(N(Cc3cccnc3)C(=O)CCc3ccccc3)nc12 | inactive: -7.85%
30 | CCCn1c(=O)c2sccc2n2c(CCCC(=O)Nc3ccc(C)c(F)c3)nnc12 | inactive: 2.91%
31 | Cc1ccc(C(=O)COC(=O)c2cc(-c3ccc(Cl)cc3)nc3ccccc23)cc1 | inactive: -10.6%
32 | COc1ccc(-c2noc(CN3CCN(c4ccccc4OC)CC3)n2)cc1OC | inactive: -6.35%
33 | COc1ccc(OC)c(-c2noc(CSc3nnc(Cc4ccccc4)n3-c3cccc(C)c3)n2)c1 | inactive: -0.618%
34 | Cn1cc(S(=O)(=O)c2ccccc2)c(=O)c2cc(F)c(N3CCCCC3)cc21 | inactive: -4.82%
35 | Cc1noc2nc(C(=O)O)nc(N3CCCCC3)c12 | inactive: -2.05%
36 | CCc1nnc(SCC(=O)Nc2cc(Cl)c(OC)cc2OC)c2cc3oc(C)cc3n12 | inactive: 3.26%
37 | COc1cccc(N2CC(NC(=O)COc3ccc4ccccc4c3)CC2=O)c1 (stereo not given) | inactive: -1.56%
38 | CC(=O)c1ccc(NC(=O)CCn2nc(C)c(S(=O)(=O)N3CCC(C)CC3)c2C)cc1 | inactive: 4.49%
39 | CC1CCC(NC(=O)Cn2ncc3c4ccccc4n(Cc4ccc(Cl)cc4)c3c2=O)CC1 (stereo not given) | inactive: 1.29%
40 | CC(C)c1cnc2c(c1SCc1cccc(C(F)(F)F)c1)c(=O)n(C)c(=O)n2C | inactive: 0.424%
41 | Cc1ccc(-n2c(=O)c3ccc(C(=O)NCc4ccco4)cc3n(Cc3cccc(Cl)c3)c2=O)cc1 | inactive: -6.41%
42 | Cc1cccc(-n2c3nc(=O)n(C)c(=O)c-3cc3c(Cl)cccc32)c1C | inactive: -0.406%
43 | CCc1nc(SCC(=O)Nc2ccc(NC(C)=O)cc2)n[nH]1 | inactive: -3.85%
44 | CC(C)CCNC(=O)CSCc1cnn(-c2ccccc2)c1-n1cccc1 | inactive: -2.76%
45 | COC(=O)c1ccccc1NC(=O)Cc1noc2ccc(C)cc12 | inactive: -4.64%
46 | COc1ccc(Br)cc1CNC(=O)CN1CCSc2ccccc21 | inactive: -9.72%
47 | CCc1ccc(NC(=O)CC2C(=O)N(c3ccccc3)C(=O)N2C(C)C)cc1 (stereo not given) | inactive: -2.24%
48 | COc1ccc(NC(=O)Cn2c(=O)n(Cc3nc(-c4ccccc4)no3)c(=O)c3cc4c(cc32)OCO4)cc1Cl | inactive: -0.31%

Row | Compound | activity change, negative = inhibition
49 | O=C(Nc1ccc(Cl)c(Cl)c1)N1CCC(c2ccccc2)C1 (stereo not given) | inactive: -11.8%
50 | COc1ccc2c(c1)-c1nc(NC(=O)c3ccc(Cl)cc3)sc1CC2 | inactive: -24.5%
51 | COc1ccc(CNc2ncnc3c2nnn3C)cc1 | inactive: -0.657%
52 | Cc1nn(CC(=O)NCc2ccc(OC(C)C)cc2)c(=O)c2c(C)n(-c3ccc(Cl)cc3)nc12 | inactive: 10.2%
53 | COc1ccc(CN2C(=O)C(NC(=O)c3ccccc3C)(C(F)(F)F)N=C2c2ccccc2)cc1 (stereo not given) | inactive: 5.98%
54 | Cc1cccc(NC(=O)Cn2cc(C(=O)c3ccco3)c3ccccc32)c1C | inactive: -6.4%
55 | CCc1ccccc1NC(=O)Cn1nnc(C(=O)Nc2ccc(C)c(F)c2)c1N | inactive: -25.7%
56 | Cc1ccc2oc(-c3ccc(Cl)c(NC(=O)c4ccc(-c5ccccc5[N+](=O)[O-])o4)c3)nc2c1 | inactive: -0.24%
57 | CSc1ccc(CCNC(=O)Cn2ncc3c(=O)oc4ccc(C)cc4c32)cc1 | inactive: 1.3%
58 | CCCCCOc1ccc(C2c3c(oc4ccccc4c3=O)C(=O)N2c2nc(C)c(C)s2)cc1OCC (stereo not given) | inactive: -0.343%
59 | COc1ccccc1CCNc1ncnc2c1nnn2C | inactive: -5.82%
60 | Cn1nc(C(=O)N2CCN(c3ccccc3)CC2)c2c1-c1ccccc1S(=O)(=O)C2 | inactive: 8.95%
61 | COc1ccc(C)cc1NC(=O)c1ccc2c(Cl)c3c(nc2c1)CCC3 | inactive: -4.85%
62 | COc1ccc(S(=O)(=O)c2c(SC)nn(Cc3ccccc3C)c2NC(C)=O)cc1 | inactive: 2.62%
63 | O=C(Nc1ccc(O)cc1)c1cccc(S(=O)(=O)N2CCOCC2)c1 | inactive: -1.75%
64 | O=C(CSc1nc2c([nH]c3ccccc32)c(=O)n1-c1ccccc1)N1CCCC1 | inactive: -9.89%
65 | CCOC(=O)c1cccc(Nc2ccc3cc(S(=O)(=O)N4CCCCC4)ccc3n2)c1 | inactive: -7.8%
66 | O=c1c2oc3ccccc3c2n(Cc2ccccc2)c(=O)n1Cc1ccc2c(c1)OCO2 | inactive: -3.69%
67 | Cc1ccc(OCC(=O)Nc2ccc3nn(-c4ccc(Cl)cc4)nc3c2)cc1 | inactive: 10.3%
68 | CCOC(=O)C1CCCN(C(=O)c2ccc3c(c2)N(Cc2ccccc2)C(=O)c2ccccc2S3=O)C1 (stereo not given) | inactive: 1.55%
69 | Cc1ccc(C)c(NC(=O)Cn2c(=O)n(CCC(=O)NCc3ccc4c(c3)OCO4)c(=O)c3ccccc32)c1 | inactive: -2.28%
70 | CCCN1CCCc2cc(CN(CCCN3CCOCC3)C(=O)Nc3ccc(CC)cc3)ccc21 | inactive: -13.9%
71 | COc1cc(C2CC(=O)Nc3c2c(=O)[nH]c2ncnn32)ccc1O (stereo not given) | inactive: 2.31%
72 | CCCCc1nn2c(=O)cc(COC(=O)c3ccccc3NC(=O)c3ccccc3OC)nc2s1 | inactive: 13.9%

Row | Compound | activity change, negative = inhibition
73 | COc1cccc(NS(=O)(=O)c2ccc3[nH]cc(C(=O)N(C)C4CCCCC4)c(=O)c3c2)c1 | inactive: 2.05%
74 | CCCC(=O)N1c2nc(C(C)C)nn2C2(CCCCC2)[C@@H]2CCCC[C@@H]21 | inactive: -6.84%
75 | COc1ccc2oc(=O)cc(CN3CCN(c4ccccc4F)CC3)c2c1 | inactive: 1.66%
76 | COc1cccc(CNC(=O)c2ccc(NC(=O)N3CCCCc4ccccc43)cc2)c1 | inactive: -5.97%
77 | O=C(Nc1cccc(Cl)c1)c1csnn1 | inactive: -1.61%
78 | Cc1ccc(-c2nc(SCC(=O)NCC3CCCO3)c(-c3ccc(C)cc3)[nH]2)cc1 (stereo not given) | inactive: 1.03%
79 | NC(=O)c1cc(S(=O)(=O)NCC2CCC(C(=O)Nc3ccc(Cl)cc3)CC2)cs1 (stereo not given) | inactive: 0%
80 | Cc1nnc(N2CCN(C(=O)Nc3cccc(C(F)(F)F)c3)CC2)c2nn(-c3ccccc3)c(C)c12 | inactive: 11.2%
81 | Cc1oc2ncn(C)c(=O)c2c1C(=O)Nc1ccc(F)cc1 | inactive: -7.52%
82 | Cc1cc(OCC(=O)NC(Cc2c[nH]c3ccccc23)C(=O)O)ccc1Cl (stereo not given) | inactive: -12.9%
83 | Cc1cc(N2CCN(c3ccc(F)cc3)CC2)n2nc(-c3ccc(Cl)cc3)nc2n1 | inactive: 1.95%
84 | CCc1nn(CC(=O)NCCc2ccc(Cl)cc2)c(=O)c2cc3ccccc3n12 | inactive: 1.08%
85 | CCOC(=O)c1[nH]c(C)c(CCC(=O)Nc2ccccc2C(=O)OC)c1C | inactive: -15.1%
86 | CCOc1ccc2nc(N(Cc3cccnc3)C(=O)C3CCCCC3)sc2c1 | inactive: -1.19%
87 | Cc1ccc(-c2nnc(Nc3ccccc3)c3ccccc23)cc1S(=O)(=O)N1CCOCC1 | inactive: 8.37%
88 | Cc1ccc(C2CCN(C(=O)Nc3ccc(Cl)c(Cl)c3)C2)cc1 (stereo not given) | inactive: -7.58%
89 | Cc1cccc(N2CCN(C(=O)c3oc(=O)c4ccccc4c3-c3ccccc3)CC2C)c1 (stereo not given) | inactive: -1.32%
90 | COc1ccc(Cn2c(CCC(=O)Nc3ccc(C)cc3C)nc3cccnc32)cc1 | inactive: -4.07%
91 | Cc1oc2ccc(O)c(CN3CCN(C)CC3)c2c1C(=O)Nc1ccccc1 | inactive: -1.8%
92 | COc1cccc(CNC(=O)c2cccc(-n3c(C)nc4cccnc43)c2C)c1 | inactive: 0.313%
93 | Cc1cccc(CSc2nc(=O)c3c(n2C)NC(=O)CC3c2cc(F)cc(F)c2)c1 (stereo not given) | inactive: -4.98%
94 | COc1ccc(-c2[nH]ncc2C(=O)NCc2cccc(OC)c2)cc1 | inactive: 1.15%
95 | Cc1ccsc1CN(C(=O)COc1ccc(Cl)cc1)C1CCS(=O)(=O)C1 (stereo not given) | inactive: 2.55%
